Consider eight variants from the supplement of paper PMC12217912.

The list shows a part of the results. The full chains were built here from the parent and the listed change. Values near 0.05 are background.

First the molecules themselves.
B1: TEV protease; numbered along this chain (parent)
chain: MGESLFKGPRDYNPISSSICHLTNESDGHTTSLYGIGFGPFIITNKHLFRRNNGTLVVQSLHGVFKVKDTTTLQQHLVDGRDMIIIRMPKDFPPFPQKLKFREPQREERICLVTTNFQTKSMSSMVSDTSCTFPSGDGIFWKHWIQTKDGQCGSPLVSTRDGFIVGIHSASNFTNTNNYFTSVPKNFMELLTNQEAQQWVSGWRLNADSVLWGGHKVFMVKPEEPFQPVKEATQL

Variants of B1 are the subject of the experiment. Briefly: raw area under fraction-flipped curve 0-4 h after induction (AUC4h, not background-subtracted), DNA-recorder readout of cleavage of the substrate (dimensionless); higher = more cleavage of the substrate by the protease variant. The following applies: temperature: 34 °C; time window: 0-4 h after rhamnose induction. The protocol: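 In vivo DNA recorder in E. coli TOP10(DE3) ΔrhaA at 34 °C. Each TEVp single-site mutant (parent TEVp 0) is paired with a single-site variant of the 7-mer TEVs (canonical ENLYFQ|S). The substrate sits between flexible linkers in a Bxb1-sfGFP-TEVs-SsrA fusion, so cleavage stabilises Bxb1 and speeds flipping of a recombination array, read by NGS. The value is the raw area under the fraction-flipped curve over 0-4 h after rhamnose induction (AUC4h), with ≥20 reads per time point. It is not background-subtracted; inactive controls average about 0.047.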
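Further: Bxb1 expression induced with 0.2% (w/v) L-rhamnose at OD600 near 0.5, cultures sampled hourly, flipped fraction per protease–substrate barcode pair counted by paired-end Illumina sequencing.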

For the variant V217S, the “area with substrate ENLYFAS” value is 0.0569, the “area with substrate ENLYFCS” value turned out to be 0.0742, the “area with substrate ENLYFFS” value stood at 0.0488 and the “area with substrate ENLYFGS” value worked out at 0.0511. In addition, the “area with substrate ENLYFIS” value turned out to be 0.0616, the “area with substrate ENLYFKS” value came to 0.0601, the “area with substrate ENLYFLS” value was 0.068 and the “area with substrate ENLYFMS” value was 0.0644. For the same variant, the “area with substrate ENLYFNS” value was found to be 0.0604, the “area with substrate ENLYFPS” value was 0.0597, the “area with substrate ENLYFRS” value came out at 0.0583 and the “area with substrate ENLYFVS” value worked out at 0.0469.
L5W: the “area with substrate ENLYFCS” value was 0.0405, the “area with substrate ENLYFGS” value worked out at 0.0888, the “area with substrate ENLYFHS” value was 0.0678 and the “area with substrate ENLYFIS” value came to 0.0556. Moreover, the “area with substrate ENLYFMS” value worked out at 0.0569, the “area with substrate ENLYFPS” value stood at 0.0686, the “area with substrate ENLYFRS” value came out at 0.0921 and the “area with substrate ENLYFTS” value turned out to be 0.0475. In addition, the “area with substrate ENLYFWS” value was found to be 0.0541.
In the case of H215P, the “area with substrate ENLYFAS” value was 0.0604, the “area with substrate ENLYFCS” value amounted to 0.0608, the “area with substrate ENLYFDS” value was 0.0697 and the “area with substrate ENLYFES” value amounted to 0.0511. In addition, the “area with substrate ENLYFFS” value amounted to 0.0614, the “area with substrate ENLYFHS” value turned out to be 0.0527, the “area with substrate ENLYFIS” value is 0.0563 and the “area with substrate ENLYFLS” value was 0.0553. Further, the “area with substrate ENLYFMS” value stood at 0.0609, the “area with substrate ENLYFPS” value was found to be 0.052, the “area with substrate ENLYFTS” value came to 0.0857 and the “area with substrate ENLYFVS” value is 0.046.
L205K: the “area with substrate ENLYFAS” value is 0.0589, the “area with substrate ENLYFDS” value worked out at 0.0501, the “area with substrate ENLYFGS” value was 0.0649 and the “area with substrate ENLYFHS” value was 0.066. Moreover, the “area with substrate ENLYFMS” value was determined as 0.069 and the “area with substrate ENLYFNS” value amounted to 0.0589.
For the variant P225E, the “area with substrate ENLYFAS” value is 0.0645, the “area with substrate ENLYFCS” value came out at 0.0718, the “area with substrate ENLYFES” value worked out at 0.0531 and the “area with substrate ENLYFFS” value was determined as 0.0741. In addition, the “area with substrate ENLYFHS” value was determined as 0.0497, the “area with substrate ENLYFIS” value was determined as 0.0591, the “area with substrate ENLYFLS” value was 0.0686 and the “area with substrate ENLYFMS” value is 0.0624. The “area with substrate ENLYFPS” value was 0.0566, the “area with substrate ENLYFRS” value came out at 0.05, the “area with substrate ENLYFSS” value was 0.0642 and the “area with substrate ENLYFWS” value is 0.0648.
On to P225H, for which the “area with substrate ENLYFAS” value came out at 0.0615, the “area with substrate ENLYFCS” value amounted to 0.0607, the “area with substrate ENLYFDS” value came to 0.0491 and the “area with substrate ENLYFES” value is 0.0667. Also, the “area with substrate ENLYFFS” value was 0.0787, the “area with substrate ENLYFIS” value worked out at 0.0545, the “area with substrate ENLYFKS” value was 0.0602 and the “area with substrate ENLYFPS” value was 0.0653. The “area with substrate ENLYFSS” value was 0.0921, the “area with substrate ENLYFTS” value stood at 0.0092 and the “area with substrate ENLYFWS” value is 0.0577.
As to P225M, the “area with substrate ENLYFAS” value worked out at 0.0617, the “area with substrate ENLYFCS” value worked out at 0.0654, the “area with substrate ENLYFDS” value came out at 0.0676 and the “area with substrate ENLYFES” value came out at 0.0896. In addition, the “area with substrate ENLYFFS” value worked out at 0.0749, the “area with substrate ENLYFGS” value is 0.0499, the “area with substrate ENLYFIS” value is 0.0599 and the “area with substrate ENLYFKS” value is 0.0633. Further, the “area with substrate ENLYFLS” value came to 0.0526, the “area with substrate ENLYFMS” value worked out at 0.0614, the “area with substrate ENLYFNS” value stood at 0.0691 and the “area with substrate ENLYFPS” value was found to be 0.061. Besides, the “area with substrate ENLYFTS” value amounted to 0.0582, the “area with substrate ENLYFVS” value was 0.0666, the “area with substrate ENLYFWS” value was determined as 0.0584 and the “area with substrate ENLYFYS” value was determined as 0.0524.
With P225N, the “area with substrate ENLYFAS” value stood at 0.055, the “area with substrate ENLYFCS” value turned out to be 0.0665, the “area with substrate ENLYFFS” value is 0.0676 and the “area with substrate ENLYFIS” value is 0.046. Besides, the “area with substrate ENLYFKS” value was found to be 0.0549, the “area with substrate ENLYFLS” value came to 0.0605, the “area with substrate ENLYFMS” value is 0.0515 and the “area with substrate ENLYFNS” value is 0.0636. Also, the “area with substrate ENLYFRS” value came out at 0.0452, the “area with substrate ENLYFSS” value was 0.0544, the “area with substrate ENLYFTS” value is 0.0554 and the “area with substrate ENLYFWS” value was 0.0648.
